These results are taken from publication PMC11316025.

No constants are given. Whether binding was seen depends on the method and setting. In cells and extracts the contact can be indirect. Some results given as binding are weak or reduced against the parent protein; the word gives no strength. Where a sequence is shown, tags or fusion partners need not be part of it.

T1: full-length FLAG-RASSF3 (human) (UniProt Q86WH2)
T1 sequence: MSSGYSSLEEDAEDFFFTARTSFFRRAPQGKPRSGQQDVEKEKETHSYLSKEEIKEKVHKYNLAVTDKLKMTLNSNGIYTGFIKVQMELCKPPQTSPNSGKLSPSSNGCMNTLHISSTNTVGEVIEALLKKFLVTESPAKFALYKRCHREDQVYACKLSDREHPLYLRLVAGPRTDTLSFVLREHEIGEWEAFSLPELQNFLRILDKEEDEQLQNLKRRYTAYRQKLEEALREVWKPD

T2: full-length FLAG-RASSF8 (human) (UniProt Q8NHQ8)
T2 sequence: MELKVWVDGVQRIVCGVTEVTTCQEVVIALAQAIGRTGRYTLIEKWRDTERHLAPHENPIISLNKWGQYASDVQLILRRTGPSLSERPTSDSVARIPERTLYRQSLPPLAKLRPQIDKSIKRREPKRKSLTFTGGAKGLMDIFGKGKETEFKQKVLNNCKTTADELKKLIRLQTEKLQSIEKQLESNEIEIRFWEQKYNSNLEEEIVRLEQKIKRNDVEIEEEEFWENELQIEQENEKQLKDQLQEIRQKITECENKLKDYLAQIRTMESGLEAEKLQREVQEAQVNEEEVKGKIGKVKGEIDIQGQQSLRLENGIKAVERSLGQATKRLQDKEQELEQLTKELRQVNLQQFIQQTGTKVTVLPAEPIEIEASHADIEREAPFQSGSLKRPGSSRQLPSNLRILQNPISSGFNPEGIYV

T3: full-length FLAG-RASSF4 (human) (UniProt Q9H2L5)
T3 sequence: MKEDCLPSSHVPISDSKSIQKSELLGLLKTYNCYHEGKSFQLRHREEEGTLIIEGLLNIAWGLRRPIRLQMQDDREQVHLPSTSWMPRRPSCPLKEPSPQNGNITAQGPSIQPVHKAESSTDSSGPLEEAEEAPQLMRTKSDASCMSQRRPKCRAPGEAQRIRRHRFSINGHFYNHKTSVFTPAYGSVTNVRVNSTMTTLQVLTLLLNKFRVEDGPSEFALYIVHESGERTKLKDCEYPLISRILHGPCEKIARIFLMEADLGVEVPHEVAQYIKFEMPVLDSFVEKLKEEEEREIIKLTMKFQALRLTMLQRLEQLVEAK

T4: full-length FLAG-tagged RASSF5 (human) (UniProt Q8WWW0)
T4 sequence: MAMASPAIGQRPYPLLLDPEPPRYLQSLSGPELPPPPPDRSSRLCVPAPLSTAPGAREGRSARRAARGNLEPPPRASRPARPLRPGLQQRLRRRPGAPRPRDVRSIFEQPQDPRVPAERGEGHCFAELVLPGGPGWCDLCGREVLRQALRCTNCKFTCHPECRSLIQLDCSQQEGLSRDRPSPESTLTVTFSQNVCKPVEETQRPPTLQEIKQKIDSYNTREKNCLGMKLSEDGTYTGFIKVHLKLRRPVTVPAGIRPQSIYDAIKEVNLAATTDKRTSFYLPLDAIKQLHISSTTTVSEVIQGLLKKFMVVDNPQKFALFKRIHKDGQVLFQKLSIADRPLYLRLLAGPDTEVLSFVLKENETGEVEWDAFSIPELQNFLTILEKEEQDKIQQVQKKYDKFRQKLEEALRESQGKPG

B1: VENUS-tagged RASD1-A178V (protein, UniProt Q9Y272 1-281)
chain: MKLAAMIKKMCPSDSELSIPAKNCYRMVILGSSKVGKTAIVSRFLTGRFEDAYTPTIEDFHRKFYSIRGEVYQLDILDTSGNHPFPAMRRLSILTGDVFILVFSLDNRDSFEEVQRLRQQILDTKSCLKNKTKENVDVPLVICGNKGDRDFYREVDQREIEQLVGDDPQRCAYFEISVKKNSSLDQMFRALFAMAKLPSEMSPDLHRKVSVQYCDVLHKKALRNKKLLRAGSGGGGGDPGDAFGIVAPFARRPSVHSDLMYIREKASAGSQAKDKERCVIS
B2: VENUS-tagged MIRO1-cGTPase (410-585) (domain or fragment, UniProt Q8IXI2 410-585)
chain: QKKQTQRNVFRCNVIGVKNCGKSGVLQALLGRNLMRQKKIREDHKSYYAINTVYVYGQEKYLLLHDISESEFLTEAEIICDVVCLVYDVSNPKSFEYCARIFKQHFMDSRIPCLIVAAKSDLHEVKQEYSISPTDFCRKHKMPPPQAFTCNTADAPSKDIFVKLTTMAMYPHVTQA
B3: VENUS-tagged, mutationally activated RASL11B (protein, UniProt Q9BPW5 1-248)
chain: MRLIQNMCTIAEYPAPGNAAASDCCVGAAGRRLVKIAVVGAVGVGKTALVVRFLTKRFIGDYERNAGNLYTRQVQIEGETLALQVQDTPGIQVHENSLSCSEQLNRCIRWADAVVIVFSITDYKSYELISQLHQHVQQLHLGTRLPVVVVANKADLLHIKQVDPQLGLQLASMLGCSFYEVSVSENYNDVYSAFHVLCKEVSHKQQPSSTPEKRRTSLIPRPKSPNMQDLKRRFKQALSAKVRTVTSV
B4: VENUS-tagged RHOBTB1 (wild-type) (protein, UniProt O94844 1-696)
chain: MDADMDYERPNVETIKCVVVGDNAVGKTRLICARACNTTLTQYQLLATHVPTVWAIDQYRVCQEVLERSRDVVDEVSVSLRLWDTFGDHHKDRRFAYGRSDVVVLCFSIANPNSLNHVKSMWYPEIKHFCPRTPVILVGCQLDLRYADLEAVNRARRPLARPIKRGDILPPEKGREVAKELGLPYYETSVFDQFGIKDVFDNAIRAALISRRHLQFWKSHLKKVQKPLLQAPFLPPKAPPPVIKIPECPSMGTNEAACLLDNPLCADVLFILQDQEHIFAHRIYLATSSSKFYDLFLMECEESPNGSEGACEKEKQSRDFQGRILSVDPEEEREEGPPRIPQADQWKSSNKSLVEALGLEAEGAVPETQTLTGWSKGFIGMHREMQVNPISKRMGPMTVVRMDASVQPGPFRTLLQFLYTGQLDEKEKDLVGLAQIAEVLEMFDLRMMVENIMNKEAFMNQEITKAFHVRKANRIKECLSKGTFSDVTFKLDDGAISAHKPLLICSCEWMAAMFGGSFVESANSEVYLPNINKISMQAVLDYLYTKQLSPNLDLDPLELIALANRFCLPHLVALAEQHAVQELTKAATSGVGIDGEVLSYLELAQFHNAHQLAAWCLHHICTNYNSVCSKFRKEIKSKSADNQEYFERHRWPPVWYLKEEDHYQRVKREREKEDIALNKHRSRRKWCFWNSSPAVA
B5: VENUS-tagged RHOBTB2 (wild-type) (protein, UniProt Q9BYZ6 1-727)
chain: MDSDMDYERPNVETIKCVVVGDNAVGKTRLICARACNATLTQYQLLATHVPTVWAIDQYRVCQEVLERSRDVVDDVSVSLRLWDTFGDHHKDRRFAYGRSDVVVLCFSIANPNSLHHVKTMWYPEIKHFCPRAPVILVGCQLDLRYADLEAVNRARRPLARPIKPNEILPPEKGREVAKELGIPYYETSVVAQFGIKDVFDNAIRAALISRRHLQFWKSHLRNVQRPLLQAPFLPPKPPPPIIVVPDPPSSSEECPAHLLEDPLCADVILVLQERVRIFAHKIYLSTSSSKFYDLFLMDLSEGELGGPSEPGGTHPEDHQGHSDQHHHHHHHHHGRDFLLRAASFDVCESVDEAGGSGPAGLRASTSDGILRGNGTGYLPGRGRVLSSWSRAFVSIQEEMAEDPLTYKSRLMVVVKMDSSIQPGPFRAVLKYLYTGELDENERDLMHIAHIAELLEVFDLRMMVANILNNEAFMNQEITKAFHVRRTNRVKECLAKGTFSDVTFILDDGTISAHKPLLISSCDWMAAMFGGPFVESSTREVVFPYTSKSCMRAVLEYLYTGMFTSSPDLDDMKLIILANRLCLPHLVALTEQYTVTGLMEATQMMVDIDGDVLVFLELAQFHCAYQLADWCLHHICTNYNNVCRKFPRDMKAMSPENQEYFEKHRWPPVWYLKEEDHYQRARKEREKEDYLHLKRQPKRRWLFWNSPSSPSSSAASSSSPSSSSAVV
B6: VENUS-tagged RHOH (wild-type) (protein, UniProt Q15669 1-191)
chain: MLSSIKCVLVGDSAVGKTSLLVRFTSETFPEAYKPTVYENTGVDVFMDGIQISLGLWDTAGNDAFRSIRPLSYQQADVVLMCYSVANHNSFLNLKNKWIGEIRSNLPCTPVLVVATQTDQREMGPHRASCVNAMEGKKLAQDVRAKGYLECSALSNRGVQQVFECAVRTAVNQARRRNRRRLFSINECKIF
B7: VENUS-RRAS2-G23V (protein, UniProt P62070 1-204)
chain: MAAAGWRDGSGQEKYRLVVVGGVGVGKSALTIQFIQSYFVTDYDPTIEDSYTKQCVIDDRAARLDILDTAGQEEFGAMREQYMRTGEGFLLVFSVTDRGSFEEIYKFQRQILRVKDRDEFPMILIGNKADLDHQRQVTQEEGQQLARQLKVTYMEASAKIRMNVDQAFHELVRVIRKFQEQECPPSPEPTRKEKDKKGCHCVIF
B8: VENUS-RAP2C-G12V (protein, UniProt Q9Y3L5 1-183)
chain: MREYKVVVLGSVGVGKSALTVQFVTGTFIEKYDPTIEDFYRKEIEVDSSPSVLEILDTAGTEQFASMRDLYIKNGQGFILVYSLVNQQSFQDIKPMRDQIVRVKRYEKVPLILVGNKVDLEPEREVMSSEGRALAQEWGCPFMETSAKSKSMVDELFAEIVRQMNYSSLPEKQDQCCTTCVVQ
B9: VENUS-RAP2B-G12V (protein, UniProt P61225 1-183)
chain: MREYKVVVLGSVGVGKSALTVQFVTGSFIEKYDPTIEDFYRKEIEVDSSPSVLEILDTAGTEQFASMRDLYIKNGQGFILVYSLVNQQSFQDIKPMRDQIIRVKRYERVPMILVGNKVDLEGEREVSYGEGKALAEEWSCPFMETSAKNKASVDELFAEIVRQMNYAAQPNGDEGCCSACVIL
B10: VENUS-RIT2-G29V (protein, UniProt Q99578 1-217)
chain: MEVENEASCSPGSASGGSREYKVVMLGAVGVGKSAMTMQFISHQFPDYHDPTIEDAYKTQVRIDNEPAYLDILDTAGQAEFTAMREQYMRGGEGFIICYSVTDRQSFQEAAKFKELIFQVRHTYEIPLVLVGNKIDLEQFRQVSTEEGLSLAQEYNCGFFETSAALRFCIDDAFHGLVREIRKKESMPSLMEKKLKRKDSLWKKLKGSLKKKRENMT

One assay has as its target T1, full-length FLAG-RASSF3 (human). Nature of the assay: co-IP; HEK 293T co-transfected with FLAG-tagged RASSF and VENUS-tagged GTPase; lysis in 20 mM Tris-HCl pH 7.5, 150 mM NaCl, 5 mM MgCl2, 10% glycerol, 1% Triton X-100, 1 mM DTT; anti-FLAG on Protein G Sepharose 1 h, three washes; blot with anti-GFP.
As for B1, the binding entry is “binds”.
Still for that read-out and setting: the same measure for B2: “no binding”.
Regarding B3, the binding result is recorded as “binds”.

A further assay addresses T2, full-length FLAG-RASSF8 (human). The assay is described as above.
Consider B4, for which the binding result is listed as “binds”.
The same measure, in the same setting: then B1, with “binds”; and B2, with “no binding”; and B5, with “binds”.
On the same count and under the same terms, then B3, with “binds”; and B6, with “binds”.

In another assay the target is T3, full-length FLAG-RASSF4 (human). The description is as above.
Turning to B2, the binding result is “no binding”.

The target in a further assay is T4, full-length FLAG-tagged RASSF5 (human). The assay is described as above.
Regarding B7, the binding result was “binds”.
B8: the binding result is on record as “binds”.
Same read-out and setting: the same measure for B2: “no binding”; for B9: “binds”.
On the same count and under the same terms, the same measure for B10: “binds”.
